Source: publication PMC4326527
Where a chain is given by its changes, count along the chain named. Results are given in words; binding and its absence hold for the method and conditions named. Some results given as binding are weak or reduced against the parent protein; the word gives no strength. For some assays here: Where a sequence is shown, tags or fusion partners need not be part of it.

Sequences of proteins named here, by UniProt entry; tags and fusion partners are left off. A change or cut given only in a name is not applied to a line headed by its entry. A line that says so, or that is headed by a name, gives the form on record, which may keep a tag or linker.
USP46 central fragment (165–259) in pNLS(SV40)-GFP (P62068, form named): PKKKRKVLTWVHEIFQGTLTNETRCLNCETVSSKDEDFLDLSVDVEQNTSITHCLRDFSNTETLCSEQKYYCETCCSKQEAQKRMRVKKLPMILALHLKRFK
full length USP46 in pNLS(SV40)-GFP (P62068, form named): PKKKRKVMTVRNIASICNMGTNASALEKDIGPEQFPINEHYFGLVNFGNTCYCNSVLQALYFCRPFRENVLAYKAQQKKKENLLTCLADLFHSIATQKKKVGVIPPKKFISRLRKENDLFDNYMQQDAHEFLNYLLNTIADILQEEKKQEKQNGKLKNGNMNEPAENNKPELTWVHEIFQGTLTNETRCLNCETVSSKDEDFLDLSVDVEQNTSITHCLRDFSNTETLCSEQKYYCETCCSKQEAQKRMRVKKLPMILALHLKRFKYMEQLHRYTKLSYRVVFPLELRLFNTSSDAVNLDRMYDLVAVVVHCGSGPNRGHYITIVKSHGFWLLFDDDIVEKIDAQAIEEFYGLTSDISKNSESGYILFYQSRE
UniProt Q8TAF3: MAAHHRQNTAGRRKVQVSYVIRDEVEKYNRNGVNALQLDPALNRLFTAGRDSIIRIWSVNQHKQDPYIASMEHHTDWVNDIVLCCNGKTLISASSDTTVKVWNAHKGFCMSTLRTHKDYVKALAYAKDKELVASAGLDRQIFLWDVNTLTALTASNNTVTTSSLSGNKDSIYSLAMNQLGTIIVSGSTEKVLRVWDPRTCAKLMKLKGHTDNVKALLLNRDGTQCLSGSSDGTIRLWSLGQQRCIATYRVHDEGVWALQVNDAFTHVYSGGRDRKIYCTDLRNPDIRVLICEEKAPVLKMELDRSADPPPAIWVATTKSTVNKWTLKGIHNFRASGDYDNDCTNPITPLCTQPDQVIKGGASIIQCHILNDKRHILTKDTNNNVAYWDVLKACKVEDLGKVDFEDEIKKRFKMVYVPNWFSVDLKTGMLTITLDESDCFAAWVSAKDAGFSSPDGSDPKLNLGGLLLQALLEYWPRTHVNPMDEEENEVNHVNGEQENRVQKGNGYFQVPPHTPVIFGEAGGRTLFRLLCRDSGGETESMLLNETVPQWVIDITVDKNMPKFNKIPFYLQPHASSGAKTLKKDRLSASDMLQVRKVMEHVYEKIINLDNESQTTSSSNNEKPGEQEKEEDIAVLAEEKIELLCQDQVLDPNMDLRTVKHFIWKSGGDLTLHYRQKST

Legend:
Assay in all cases: nuclear relocation assay; 293T cells co-transfected with UAF1-mRFP and a GFP- or YFP-tagged nuclear DUB variant; nuclear accumulation of UAF1-mRFP seen by confocal microscopy in fixed cells (live cells too for USP1 WT, S313A, S313D; also after USP1 siRNA)
[1] = biological target: T1, GFP-USP1 wild type (human) (UniProt O94782)
T1 sequence: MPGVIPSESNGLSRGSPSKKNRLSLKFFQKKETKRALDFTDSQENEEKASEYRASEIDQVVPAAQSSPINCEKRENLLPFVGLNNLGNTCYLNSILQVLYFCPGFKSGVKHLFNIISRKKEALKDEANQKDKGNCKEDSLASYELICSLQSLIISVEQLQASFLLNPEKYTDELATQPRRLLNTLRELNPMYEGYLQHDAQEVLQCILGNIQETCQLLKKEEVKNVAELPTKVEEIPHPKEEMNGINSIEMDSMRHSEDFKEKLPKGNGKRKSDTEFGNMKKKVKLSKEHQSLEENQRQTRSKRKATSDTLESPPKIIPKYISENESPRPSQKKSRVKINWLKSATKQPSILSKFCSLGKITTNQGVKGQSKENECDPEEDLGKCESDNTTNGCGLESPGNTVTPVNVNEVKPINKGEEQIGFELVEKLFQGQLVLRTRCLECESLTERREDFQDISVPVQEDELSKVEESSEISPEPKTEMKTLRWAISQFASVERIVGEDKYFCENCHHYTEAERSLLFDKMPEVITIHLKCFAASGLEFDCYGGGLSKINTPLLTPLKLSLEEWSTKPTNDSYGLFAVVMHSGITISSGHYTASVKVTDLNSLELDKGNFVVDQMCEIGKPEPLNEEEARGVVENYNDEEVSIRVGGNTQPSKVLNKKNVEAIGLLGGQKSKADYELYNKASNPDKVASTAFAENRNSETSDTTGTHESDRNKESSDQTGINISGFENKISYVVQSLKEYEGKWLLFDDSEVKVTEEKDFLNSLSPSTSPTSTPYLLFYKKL

[2] = biological target: T2, GFP-USP1^A676T (human) (UniProt O94782)
T2 sequence: T1 sequence with A676T

[3] = biological target: T3, GFP-USP1^S313D (human) (UniProt O94782)
T3 sequence: T1 sequence with S313D

[4] = biological target: USP46 central fragment (165–259) in pNLS(SV40)-GFP (Simian virus 40 | not stated) (UniProt P62068)
[5] = biological target: full length USP46 in pNLS(SV40)-GFP (Simian virus 40 | not stated) (UniProt P62068)

Measured: binding

UAF1-mRFP (from UniProt Q8TAF3 1-677)
binds: all assays above
